# According to the BET-seq Pho4 binding data (Le et al. 2018):
# The other results are listed elsewhere or left out. Values were computed here from the reads of four pooled replicates and scatter widely.
# Molecular target: T1, Pho4 (S. cerevisiae) (UniProt P07270)
# T1 sequence: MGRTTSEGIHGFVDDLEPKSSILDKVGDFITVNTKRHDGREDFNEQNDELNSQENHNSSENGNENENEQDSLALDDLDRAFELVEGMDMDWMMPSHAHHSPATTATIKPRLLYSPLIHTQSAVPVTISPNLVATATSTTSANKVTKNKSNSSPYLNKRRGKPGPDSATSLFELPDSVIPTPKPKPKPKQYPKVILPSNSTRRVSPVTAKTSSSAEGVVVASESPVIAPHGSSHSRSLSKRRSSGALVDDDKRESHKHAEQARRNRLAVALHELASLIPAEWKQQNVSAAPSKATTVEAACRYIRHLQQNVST
# Assay: relative binding free energy (BET-seq); higher = weaker binding
# Settings: reference: library average
row,Sequence,relative binding free energy
1,TTGGTCACGTGAGAGC,0.34 kcal/mol
2,TGGGTCACGTGGACTG,0.14 kcal/mol
3,CGGGACACGTGGGATT,0.02 kcal/mol
4,CTGTGCACGTGAGTAG,0.19 kcal/mol
5,GAGTGCACGTGTTAGA,0.02 kcal/mol
6,TTGTACACGTGGTGGA,-0.01 kcal/mol
7,TATTGCACGTGCAGGA,-0.14 kcal/mol
8,TGTCGCACGTGGTGCG,-0.18 kcal/mol
9,AATGTCACGTGTTTTA,0.07 kcal/mol
10,AGTAACACGTGGTGGA,-0.01 kcal/mol
11,TACTGCACGTGCGTGG,-0.15 kcal/mol
12,AATGGCACGTGAGTGT,0.14 kcal/mol
13,TGGCACACGTGAGTTA,0.24 kcal/mol
14,GTCGCCACGTGGGGTG,-0.28 kcal/mol
15,GTACGCACGTGTTGGG,-0.14 kcal/mol
16,AGTGTCACGTGTGCTA,0 kcal/mol
17,ATGCGCACGTGGCGGT,-0.3 kcal/mol
18,TAAGACACGTGGATGG,0.05 kcal/mol
19,TGTTACACGTGGGGCA,-0.02 kcal/mol
20,GTTTTCACGTGATACG,0.33 kcal/mol
21,TGAGCCACGTGGTTAG,-0.19 kcal/mol
22,TATGCCACGTGCAGGG,-0.13 kcal/mol
23,GGCCTCACGTGTTGGA,0.44 kcal/mol
24,ATATACACGTGCGTAT,0 kcal/mol
25,AGTTTCACGTGTCTTA,0.19 kcal/mol

row,Sequence,relative binding free energy
1,GGGTACACGTGACTGT,0.12 kcal/mol
2,TGGGGCACGTGAAGGA,0.07 kcal/mol
3,GAGGCCACGTGGGAGG,-0.16 kcal/mol
4,GCTCTCACGTGGTTGG,0.28 kcal/mol
5,GTGGACACGTGACTTG,0.23 kcal/mol
6,ATAGACACGTGATTGG,0.14 kcal/mol
7,GGATACACGTGAGTTT,0.43 kcal/mol
8,TCTGGCACGTGTGAAA,0.02 kcal/mol
9,AATGACACGTGGGGTC,-0.08 kcal/mol
10,ATTTACACGTGAGGGC,0.18 kcal/mol
11,TGGGGCACGTGGAGCC,-0.06 kcal/mol
12,TATCTCACGTGGGGGC,0.2 kcal/mol
13,TCTCGCACGTGTAGGT,-0.08 kcal/mol
14,GTGTACACGTGAATGG,0.28 kcal/mol
15,TCGTTCACGTGTATGA,0.35 kcal/mol
16,GGCTTCACGTGGGATT,0.19 kcal/mol
17,AGATTCACGTGTTTGA,0.21 kcal/mol
18,TTTGTCACGTGAGAAA,0.26 kcal/mol
19,GGATACACGTGTATTT,0.02 kcal/mol
20,ATGGGCACGTGATAGA,-0.02 kcal/mol
21,AGCGTCACGTGGAGTT,0.16 kcal/mol
22,GTTGGCACGTGGATAT,-0.04 kcal/mol
23,GCGAGCACGTGGTAGG,-0.12 kcal/mol
24,AATTGCACGTGGTTTT,-0.04 kcal/mol
25,TTTCACACGTGCTGTG,0.03 kcal/mol

row,Sequence,relative binding free energy
1,GATGTCACGTGTGGAG,0.09 kcal/mol
2,GTTATCACGTGTGGTT,0.25 kcal/mol
3,GGCAGCACGTGTGATG,0.18 kcal/mol
4,GTGTCCACGTGGGTTT,0.11 kcal/mol
5,ATTCGCACGTGAGGGT,-0.07 kcal/mol
6,ATGCGCACGTGGGCTT,-0.26 kcal/mol
7,CGTATCACGTGGGGAT,0.09 kcal/mol
8,TTAGACACGTGTGGTT,0.16 kcal/mol
9,TCGTGCACGTGTTGTC,-0.03 kcal/mol
10,GATTTCACGTGGGTTA,0.24 kcal/mol
11,GGCGTCACGTGTGTAG,-0.01 kcal/mol
12,AGTTCCACGTGAGGCG,0.4 kcal/mol
13,AGAGCCACGTGGTAGG,-0.25 kcal/mol
14,GCGTTCACGTGGGAGA,0.32 kcal/mol
15,TGTGACACGTGTAGTA,-0.02 kcal/mol
16,AACGGCACGTGGAGTT,0.02 kcal/mol
17,TAGTACACGTGCTTTA,0 kcal/mol
18,GAGGTCACGTGTCTTT,0.16 kcal/mol
19,TTAGTCACGTGTCGAT,0.09 kcal/mol
20,CTTTTCACGTGGGCAG,0.27 kcal/mol
21,GGCAGCACGTGAGAGG,0.24 kcal/mol
22,AATGTCACGTGAGGCT,0.19 kcal/mol
23,AGGACCACGTGTAGTG,0.06 kcal/mol
24,GAGGTCACGTGTAAGG,0.23 kcal/mol
25,TTAAGCACGTGAGGGA,0.21 kcal/mol

row,Sequence,relative binding free energy
1,AAGGACACGTGTGTAT,0.08 kcal/mol
2,TAATACACGTGGGTAG,-0.18 kcal/mol
3,TTGATCACGTGTCATG,0.1 kcal/mol
4,GTGTTCACGTGGCAGA,0.25 kcal/mol
5,GGATTCACGTGGGAAA,0.2 kcal/mol
6,GTTATCACGTGGAGGG,0.12 kcal/mol
7,TGTGTCACGTGGCGGA,-0.03 kcal/mol
8,TCATGCACGTGGGATT,-0.21 kcal/mol
9,AGTGGCACGTGTAATA,-0.05 kcal/mol
10,CGTTGCACGTGAGGGG,0.27 kcal/mol
11,CGGAGCACGTGAGTTG,0.12 kcal/mol
12,TGGGACACGTGGAGGT,0.1 kcal/mol
13,TGATCCACGTGTTGTG,0.07 kcal/mol
14,CCATTCACGTGTGGTA,0.3 kcal/mol
15,TAGTGCACGTGAGATG,0.19 kcal/mol
16,GTAGGCACGTGGGTCG,-0.12 kcal/mol
17,ATATTCACGTGATGCT,0.22 kcal/mol
18,TCATTCACGTGAATGT,0.46 kcal/mol
19,TCGGACACGTGTATAG,0.19 kcal/mol
20,TGTGACACGTGGCTAG,0.01 kcal/mol
21,TTTATCACGTGGAGTA,0.12 kcal/mol
22,GCCTCCACGTGGGGTG,-0.06 kcal/mol
23,GTTCTCACGTGTGGCG,0.32 kcal/mol
24,TGGTGCACGTGCAGTA,-0.15 kcal/mol
25,GGCTGCACGTGGTTGG,-0.02 kcal/mol

row,Sequence,relative binding free energy
1,TATTTCACGTGTATAT,0.23 kcal/mol
2,TGAAGCACGTGTTTTG,-0.05 kcal/mol
3,GTCGTCACGTGAGCGG,0.32 kcal/mol
4,TTATTCACGTGGCGCG,0.17 kcal/mol
5,AGTTGCACGTGGACTT,-0.03 kcal/mol
6,GTAGCCACGTGGGGGC,-0.13 kcal/mol
7,TGTGTCACGTGAGTAT,0.19 kcal/mol
8,GTGTTCACGTGTGAGT,0.39 kcal/mol
9,AGTGGCACGTGTTGGA,-0.09 kcal/mol
10,GATGTCACGTGCTGTT,0.11 kcal/mol
11,TGGTTCACGTGTTCAA,0.24 kcal/mol
12,TCAGTCACGTGAGTAT,0.37 kcal/mol
13,ATTCGCACGTGTTGGT,-0.08 kcal/mol
14,TCGGACACGTGAAGGT,0.19 kcal/mol
15,GTAAACACGTGTTCTT,0.13 kcal/mol
16,ATTAGCACGTGATTTT,0.09 kcal/mol
17,AAGCTCACGTGGTTGA,0.25 kcal/mol
18,GAGGTCACGTGTTCTG,0.21 kcal/mol
19,TCGAACACGTGGGAGG,-0.08 kcal/mol
20,CGTTTCACGTGGAGAT,0.41 kcal/mol
21,TATGTCACGTGTATAC,-0.03 kcal/mol
22,GGAAGCACGTGTGTCT,0.03 kcal/mol
23,GAGATCACGTGTACGG,0.27 kcal/mol
24,ATTGGCACGTGCGCGT,-0.25 kcal/mol
25,CGGTTCACGTGCAGGA,0.22 kcal/mol

row,Sequence,relative binding free energy
1,GGTTTCACGTGGCGGA,0.37 kcal/mol
2,TGTACCACGTGGTGAG,-0.06 kcal/mol
3,CGAGTCACGTGGGGCG,0.06 kcal/mol
4,TTAATCACGTGAGAGA,0.32 kcal/mol
5,GAGCTCACGTGGTTAG,0.28 kcal/mol
6,GGGCACACGTGGGGAA,0.15 kcal/mol
7,ATCTTCACGTGGTGCG,0.21 kcal/mol
8,ATGGGCACGTGTGAAG,-0.08 kcal/mol
9,AATGTCACGTGGTGAG,0.02 kcal/mol
10,GTGTACACGTGAAAAG,0.4 kcal/mol
11,TAAATCACGTGGTTCG,0.06 kcal/mol
12,TTTATCACGTGGCAGG,0.19 kcal/mol
13,TCTTGCACGTGTCTTT,-0.05 kcal/mol
14,GATAACACGTGAGTTA,0.37 kcal/mol
15,GGGGTCACGTGGACTA,0.11 kcal/mol
16,GAGGCCACGTGGTGTT,-0.16 kcal/mol
17,GGATACACGTGTAATG,0.18 kcal/mol
18,GTGGGCACGTGAGTAG,0.14 kcal/mol
19,GGTTCCACGTGTGGAG,0.17 kcal/mol
20,ACGGACACGTGTTTTT,0.27 kcal/mol
21,CTGTACACGTGGAATG,0.21 kcal/mol
